{"source": "PubChem BioAssay (Tox21)", "note": "Several values for one entry are separate records, joined by “and”; a condition that tells them apart may be missing. Equal entries are not always repeated. Inconclusive means that the source gave no clear call. Such entries were picked first, then a sample of the others. Potencies beside an inconclusive call are fits to weak or partial responses and may not hold up. Activity calls are given as the source filed them. The call rests on the fitted dose curve; in most records, active means well fitted inhibition curve with a large enough effect in the repeat runs; inconclusive means weak or mixed curves; inactive means no such curve, though single readings can be large or run the other way. On the % scale 0 is the no-effect control and ±100 the full control effect; potency means the concentration at half of the fitted maximal effect; tags describe the fitted curve by direction and shape.", "data": [{"target": "Cytochrome P450 2C19 (Homo sapiens) (UniProt P33261)", "sequence (P33261 whole entry, looked up)": "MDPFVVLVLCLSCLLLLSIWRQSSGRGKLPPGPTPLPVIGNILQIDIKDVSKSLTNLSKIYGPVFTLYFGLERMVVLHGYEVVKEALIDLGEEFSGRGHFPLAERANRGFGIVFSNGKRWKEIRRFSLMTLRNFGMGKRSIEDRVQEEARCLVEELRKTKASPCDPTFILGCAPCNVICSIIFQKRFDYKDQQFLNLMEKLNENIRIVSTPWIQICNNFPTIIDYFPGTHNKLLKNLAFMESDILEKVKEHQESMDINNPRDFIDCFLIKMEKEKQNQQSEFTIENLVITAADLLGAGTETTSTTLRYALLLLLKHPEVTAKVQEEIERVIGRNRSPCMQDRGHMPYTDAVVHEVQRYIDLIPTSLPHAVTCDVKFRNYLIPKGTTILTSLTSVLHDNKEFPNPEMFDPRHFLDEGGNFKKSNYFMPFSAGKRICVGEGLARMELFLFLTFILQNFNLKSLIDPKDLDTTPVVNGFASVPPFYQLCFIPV", "assay": "Cytochrome P450 Family 2 Subfamily C Member 19 (CYP2C19) small molecule antagonists: luciferase reporter qHTS assay (AID 1671197); further: nearly all actives have a fitted effect of over 65% in size", "conditions": "P450-Glo CYP2C19 enzyme, luciferin luminescence, 1 h; series mostly up to 115 µM; activity change, negative = inhibition: at the top concentration", "how_it_was_run": "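Quantitative high-throughput screen of the Tox21 library using CYP2C19 with proluciferin substrate. Reaction: NADPH regeneration, 37C, 1 h, after 10 min compound preincubation at room temperature. Readout: luminescence.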", "values": [{"smiles": "CC(C)NC(=O)c1ccc(C=O)cc1", "activity change, negative = inhibition": "inactive: 23.6% [at 52.9 µM]"}, {"smiles": "CC/C=C\\CCOC(=O)c1ccccc1O", "Potency": "inconclusive: 89.4 µM [inhibitor, single point]"}, {"smiles": "CCCCN(CCCC)CCCCCCN(CCCC)CCCC", "activity change, negative = inhibition": "inactive: 11%"}, {"smiles": "CC1(C)O[C@@H]2[C@@H](CO[C@@]3(COS(N)(=O)=O)OC(C)(C)O[C@@H]23)O1", "Potency": "inconclusive: 79.6 µM [inhibitor]"}, {"smiles": "Nc1cccc(O)c1", "Potency": "active: 73.1 µM"}, {"smiles": "N[C@@H](Cc1cc(I)c(O)c(I)c1)C(=O)O", "activity change, negative = inhibition": "inactive: 17.8% [at 52.9 µM]"}, {"smiles": "Nc1nc2c(ncn2COCCO)c(=O)[nH]1", "activity change, negative = inhibition": "inactive: 1.84% [at 52.9 µM]"}, {"smiles": "COc1cc(N)c(Cl)cc1C(=O)NC1CCN(Cc2ccccc2)CC1", "Potency": "inconclusive: 38.9 µM [inhibitor, single point]"}, {"smiles": "CCCC(=O)OC", "activity change, negative = inhibition": "inactive: 1.05%"}, {"smiles": "Cc1nc2ccccc2c(=O)o1", "Potency": "inconclusive: 89.8 µM [inhibitor, single point]"}, {"smiles": "CCCCCCCCCCC(=O)O", "Potency": "inconclusive: 80.6 µM [inhibitor, single point]"}, {"smiles": "CCOC(=O)Oc1ccc(CCNC(=O)[C@H](CCSC)NC(C)=O)cc1OC(=O)OCC", "activity change, negative = inhibition": "inactive: -5.38% [at 52.9 µM]"}]}, {"target": "Cytochrome P450 2C9 (Homo sapiens) (UniProt P11712)", "sequence (P11712 whole entry, looked up)": "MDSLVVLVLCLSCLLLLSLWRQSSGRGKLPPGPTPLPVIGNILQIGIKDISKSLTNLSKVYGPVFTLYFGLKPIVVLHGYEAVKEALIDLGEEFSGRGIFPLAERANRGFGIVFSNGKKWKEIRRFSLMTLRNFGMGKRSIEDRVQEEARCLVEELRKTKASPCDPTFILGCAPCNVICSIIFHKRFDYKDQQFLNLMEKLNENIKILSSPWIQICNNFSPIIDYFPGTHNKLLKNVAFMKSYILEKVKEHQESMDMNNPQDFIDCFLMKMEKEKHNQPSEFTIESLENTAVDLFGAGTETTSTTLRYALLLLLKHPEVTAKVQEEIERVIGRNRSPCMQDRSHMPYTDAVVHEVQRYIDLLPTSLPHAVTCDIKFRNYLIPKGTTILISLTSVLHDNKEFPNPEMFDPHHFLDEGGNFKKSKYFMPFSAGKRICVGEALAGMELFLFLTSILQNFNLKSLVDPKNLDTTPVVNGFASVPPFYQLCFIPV", "assay": "Cytochrome P450 Family 2 Subfamily C Member 9 (CYP2C9) small molecule antagonists: luciferase reporter qHTS assay (AID 1671198); further: nearly all actives have a fitted effect of over 50% in size", "conditions": "P450-Glo CYP2C9 enzyme assay, luciferin luminescence; series mostly up to 115 µM; activity change, negative = inhibition: at the top concentration", "how_it_was_run": "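P450-Glo proluciferin substrate with CYP2C9 enzyme; 10 min RT preincubation, then NADPH regeneration 1 h at 37C; luciferin detection reagent 20 min RT, luminescence in relative luminescence units.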", "values": [{"smiles": "CCCCCCCC/C=C\\CCCCCCCCN", "Potency": "active: 38.9 µM"}, {"smiles": "Nc1nc(-c2ccc([N+](=O)[O-])cc2)cs1", "Potency": "inconclusive: 10.1 µM [inhibitor, full curve]"}, {"smiles": "CC/C=C\\CCOC(=O)c1ccccc1O", "Potency": "inconclusive: 35.6 µM [inhibitor, partial curve]"}, {"smiles": "CCCCN(CCCC)CCCCCCN(CCCC)CCCC", "Potency": "inconclusive: 71 µM [inhibitor, partial curve, poor fit]"}, {"smiles": "Cc1ccc(C(=O)O)cc1", "activity change, negative = inhibition": "inactive: -1.47%"}, {"smiles": "CC1(C)O[C@@H]2[C@@H](CO[C@@]3(COS(N)(=O)=O)OC(C)(C)O[C@@H]23)O1", "Potency": "inactive"}, {"smiles": "C1COCCO1", "Potency": "inconclusive: 57.8 µM [inhibitor, partial curve, poor fit]"}, {"smiles": "COc1ccc2nc(N)sc2c1", "Potency": "inconclusive: 39.9 µM [inhibitor, partial curve] and active: 39.9 µM"}, {"smiles": "CC(=O)Oc1ccc([N+](=O)[O-])cc1CCl", "Potency": "inconclusive: 63.3 µM [inhibitor, partial curve]"}, {"smiles": "Cc1nc2ccccc2c(=O)o1", "Potency": "inconclusive: 71.3 µM [inhibitor, partial curve, poor fit]"}, {"smiles": "CCCCCCCCCCC(=O)O", "Potency": "inconclusive: 57.1 µM [inhibitor, partial curve]"}, {"smiles": "N=C(N)N", "Potency": "inconclusive: 17.4 µM [inhibitor, partial curve, poor fit]"}, {"smiles": "CC(=O)OCCc1ccccc1", "Potency": "inconclusive: 79.6 µM [inhibitor, partial curve, poor fit]"}]}]}
